From a collection of fitness landscapes (doi:10.1016/j.celrep.2020.107928)
Over roughly 81,000 sequences, “one-hybrid fitness for binding NBS DNA” has its median near -0.1; the highest 2% begin near 0.36. The list shows a part of the results.

B1: Caulobacter ParB omega fusion; a variant is named by its letters at X, in order, B8GW30 (parent)
chain: MESVVVGEPGMSEGRRGLGRGLSALLGEVDAAPAQAPGEQLGGSREAPIEILQRNPDQPRRTFREEDLEDLSNSIREKGVLQPILVRPSPDTAGEYQIVAGERAWRAAQRAGLKTVPIMVRELDDLAVLEIGIIENVQRADLNVLEEALSYKVLMEKFERTQENIAQTIGKSXSHVANXMRLLXLPDEVQSYLVSGELTAXHARAIAAAADPVALAKQIIEGGLSVRETEALARKAPNLSAGKSKGGRPPRVKDTDTQALESDLSSVLGLDVSIDHRGSTGTLTITYATLEQLDDLCNRLTRGI

Variants of: B1
Test: one-hybrid fitness for binding NBS DNA (the Noc-binding site; scaled: cognate 1, non-cognate 0); higher = stronger binding
Conditions: with NBS DNA site
Summary of the method: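 Values were rescaled so that cognate is 1 and non-cognate is 0. Each is a fitness, the log change in a variant's read ratio to wild type from Illumina reads of plasmids before and after selection, with three replicate libraries pooled and variants under 10 reads dropped. Selection of the Caulobacter ParB libraries, four specificity codons randomised, used E. coli USO with a HIS3 reporter, site 19 bp from the promoter, on M9-minus-histidine with 0.1 mM IPTG and 5 mM 3-AT for 48 hours at 37°C.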

one-hybrid fitness for binding NBS DNA, 0.755:
RRDT

one-hybrid fitness for binding NBS DNA, 0.251:
QRLI

one-hybrid fitness for binding NBS DNA, 0.446:
RFRS

one-hybrid fitness for binding NBS DNA, ≤ 0.2:
AIRW
HTWT
AAGR
EPAF
GVEF
RDHL
PQNV
PAEL
HVVK
SFHL
MAWS
FYII
DACY
SRLR
PHCG
KYAL
DVHT
LQRI
PKRR
EMLT
MRSM
VAYI
RTTE
GSHM
SMAF
LKHA
SDVF
RIRL
SKND
YYGG
MFHG
EYGS
QEYD
DAVD
MATS
YVIP
TYYG
PMAY
HSAR
TEGC
PPGP
QMAF
TQGP
IMVQ
NKSG
KDSV
FVIG
ITTP
VWGG
EYRD
LETI
WTVS
ALYI
AERV
CPPM
GIIR
EHVG
TRHK
VFKQ
RKFA
WAAT
TVKS
CANQ
YTHW
VPFH
SYKY
EPNS
DRLH
PGVL
NGNG
THDS
CYRH
DLAS
QINI
QVHL
TAGE
HLSR
GRSY
RDLL
YRPD
TFHV
GFAL
LSND
DKGD
GRPT
VLTH
LMIE
KDYS
PTQM
EHPD
DSAI
AMLL
VCAS
CSSK
MCDC
RMRP
GQTM
YNGS
IPSS
SGQK
GNTA
PMKC
QTPY
CKPD
MHRG
MYPV
RTYW
MKPG
PKTS
LQPY
ACRM
CIHT
NALC
QPAM
RVWY
PTED
AGDQ
SPMS
ICMS
DTSG
IPVV
ASMP
MLTY
DPRC
ELGV
NVTL
QDRY
HVSA
NTQR
VFSK
NIHT
PRPW
LHAI
TRYW
VNVH
ALTN
MGEC
AYVI
HTPL
IIER
RMEK
QAWM
VIGF
VGPP
TNHW
RLWW
QYSQ
VLAN
MVAQ
PIEF
LPFM
TLAD
MVVR
MPCL
RNRV
NRSL
IVCD
ESYN
ESTK
GVKC
QGYF
LNQS
IWVC
NCVF
WMNS
HAGH
PMPV
SDNV
HDAL
TRCD
HMAT
PLDR
STHW
RCYG
PFDL
SYHA
LPDY
LWSP
QQPP
ELST
QHIK
SCFK
EMPS
LSSG
PYIG
SRWY

one-hybrid fitness for binding NBS DNA, 0.237:
ILKR

one-hybrid fitness for binding NBS DNA, 0.343:
RRNC

one-hybrid fitness for binding NBS DNA, 0.423:
QCRF

one-hybrid fitness for binding NBS DNA, 0.258:
QQNV

one-hybrid fitness for binding NBS DNA, 0.349:
RIQS

one-hybrid fitness for binding NBS DNA, 0.515:
QTFT
